# Assay results taken from the supplement of paper PMC8728848.
# The other results are listed elsewhere or left out.
# Experiments:
# Test in all cases: glycan array binding signal (z-score within array); higher = stronger binding
# Conditions in all cases: glycan notation: IUPAC condensed, linker removed
# [1] = target: GlcNAc(b1-2)[GlcNAc(b1-4)]Man(a1-3)[GlcNAc(b1-4)][GlcNAc(b1-2)[GlcNAc(b1-6)]Man(a1-6)]Man(b1-4)GlcNAc(b1-4)GlcNAc
# In short: (§1)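 Glycan array data were curated from 3228 arrays in the Consortium for Functional Glycomics database and kept only where the protein sequence was available. Glycan names were converted to IUPAC-condensed notation, and columns mapping to the same glycan were averaged. The binding signal is a within-array Z-score, averaged across arrays of the same protein sequence at different concentrations or buffers and across linkers. Negative Z-scores can be read as non-binding.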
# [2] = target: GlcNAc(b1-2)[GlcNAc(b1-4)]Man(a1-3)[GlcNAc(b1-4)][GlcNAc(b1-2)[GlcNAc(b1-6)]Man(a1-6)]Man(b1-4)GlcNAc(b1-4)[Fuc(a1-6)]GlcNAc
# In short: as §1
# [3] = target: GlcNAc(b1-2)[GlcNAc(b1-6)]Man(a1-6)[GlcNAc(b1-2)Man(a1-3)]Man(b1-4)GlcNAc(b1-4)GlcNAc
# In short: as §1
# [4] = target: GlcNAc(b1-2)[GlcNAc(b1-6)]Man(a1-6)[GlcNAc(b1-2)Man(a1-3)]Man(b1-4)GlcNAc(b1-4)[Fuc(a1-6)]GlcNAc
# In short: as §1
# [5] = target: GlcNAc(b1-2)[GlcNAc(b1-6)]Man(a1-6)[GlcNAc(b1-4)][GlcNAc(b1-2)Man(a1-3)]Man(b1-4)GlcNAc(b1-4)GlcNAc
# In short: as §1
# GlcNAc(b1-3)Fuc = target: GlcNAc(b1-3)Fuc
# In short: as §1
# GlcNAc(b1-3)Gal = target: GlcNAc(b1-3)Gal
# In short: as §1
# [6] = target: GlcNAc(b1-3)Gal(b1-3)GalNAc
# In short: as §1
# GlcNAc(b1-3)Gal(b1-4)Glc = target: GlcNAc(b1-3)Gal(b1-4)Glc
# In short: as §1
# [7] = target: GlcNAc(b1-3)Gal(b1-4)GlcNAc
# In short: as §1
# [8] = target: GlcNAc(b1-3)Gal(b1-4)GlcNAc(b1-2)Man(a1-3)[GlcNAc(b1-3)Gal(b1-4)GlcNAc(b1-2)Man(a1-6)]Man(b1-4)GlcNAc(b1-4)GlcNAc
# In short: as §1
# [9] = target: GlcNAc(b1-3)Gal(b1-4)GlcNAc(b1-2)Man(a1-3)[GlcNAc(b1-3)Gal(b1-4)GlcNAc(b1-2)Man(a1-6)]Man(b1-4)GlcNAc(b1-4)[Fuc(a1-6)]GlcNAc
# In short: as §1
# [10] = target: GlcNAc(b1-3)Gal(b1-4)GlcNAc(b1-2)[GlcNAc(b1-3)Gal(b1-4)GlcNAc(b1-6)]Man(a1-6)[GlcNAc(b1-3)Gal(b1-4)GlcNAc(b1-2)Man(a1-3)]Man(b1-4)GlcNAc(b1-4)GlcNAc
# In short: as §1
# [11] = target: GlcNAc(b1-3)Gal(b1-4)GlcNAc(b1-3)Gal(b1-4)GlcNAc
# In short: as §1
# [12] = target: GlcNAc(b1-3)Gal(b1-4)GlcNAc(b1-3)Gal(b1-4)GlcNAc(b1-2)Man(a1-3)[GlcNAc(b1-3)Gal(b1-4)GlcNAc(b1-3)Gal(b1-4)GlcNAc(b1-2)Man(a1-6)]Man(b1-4)GlcNAc(b1-4)GlcNAc
# In short: as §1
# [13] = target: GlcNAc(b1-3)Gal(b1-4)GlcNAc(b1-3)Gal(b1-4)GlcNAc(b1-2)Man(a1-3)[GlcNAc(b1-3)Gal(b1-4)GlcNAc(b1-3)Gal(b1-4)GlcNAc(b1-2)Man(a1-6)]Man(b1-4)GlcNAc(b1-4)[Fuc(a1-6)]GlcNAc
# In short: as §1
# [14] = target: GlcNAc(b1-3)Gal(b1-4)GlcNAc(b1-3)Gal(b1-4)GlcNAc(b1-2)[GlcNAc(b1-3)Gal(b1-4)GlcNAc(b1-3)Gal(b1-4)GlcNAc(b1-6)]Man(a1-6)[GlcNAc(b1-3)Gal(b1-4)GlcNAc(b1-3)Gal(b1-4)GlcNAc(b1-2)Man(a1-3)]Man(b1-4)GlcNAc(b1-4)[Fuc(a1-6)]GlcNAc
# In short: as §1
# [15] = target: GlcNAc(b1-3)Gal(b1-4)GlcNAc(b1-3)Gal(b1-4)GlcNAc(b1-3)Gal(b1-4)GlcNAc(b1-2)Man(a1-3)[GlcNAc(b1-3)Gal(b1-4)GlcNAc(b1-3)Gal(b1-4)GlcNAc(b1-3)Gal(b1-4)GlcNAc(b1-2)Man(a1-6)]Man(b1-4)GlcNAc(b1-4)GlcNAc
# In short: as §1
# [16] = target: GlcNAc(b1-3)Gal(b1-4)GlcNAc(b1-3)Gal(b1-4)GlcNAc(b1-3)Gal(b1-4)GlcNAc(b1-2)Man(a1-3)[GlcNAc(b1-3)Gal(b1-4)GlcNAc(b1-3)Gal(b1-4)GlcNAc(b1-3)Gal(b1-4)GlcNAc(b1-2)Man(a1-6)]Man(b1-4)GlcNAc(b1-4)[Fuc(a1-6)]GlcNAc
# In short: as §1
# [17] = target: GlcNAc(b1-3)Gal(b1-4)GlcNAc(b1-3)Gal(b1-4)GlcNAc(b1-3)Gal(b1-4)GlcNAc(b1-2)[GlcNAc(b1-3)Gal(b1-4)GlcNAc(b1-3)Gal(b1-4)GlcNAc(b1-3)Gal(b1-4)GlcNAc(b1-6)]Man(a1-6)[GlcNAc(b1-3)Gal(b1-4)GlcNAc(b1-3)Gal(b1-4)GlcNAc(b1-3)Gal(b1-4)GlcNAc(b1-2)Man(a1-3)]Man(b1-4)GlcNAc(b1-4)[Fuc(a1-6)]GlcNAc
# In short: as §1
# [18] = target: GlcNAc(b1-3)Gal(b1-4)GlcNAc(b1-3)Gal(b1-4)GlcNAc(b1-3)Gal(b1-4)GlcNAc(b1-3)Gal(b1-4)GlcNAc(b1-2)Man(a1-3)[GlcNAc(b1-3)Gal(b1-4)GlcNAc(b1-3)Gal(b1-4)GlcNAc(b1-3)Gal(b1-4)GlcNAc(b1-3)Gal(b1-4)GlcNAc(b1-2)Man(a1-6)]Man(b1-4)GlcNAc(b1-4)GlcNAc
# In short: as §1
# [19] = target: GlcNAc(b1-3)Gal(b1-4)GlcNAc(b1-3)Gal(b1-4)GlcNAc(b1-3)Gal(b1-4)GlcNAc(b1-3)Gal(b1-4)GlcNAc(b1-2)Man(a1-3)[GlcNAc(b1-3)Gal(b1-4)GlcNAc(b1-3)Gal(b1-4)GlcNAc(b1-3)Gal(b1-4)GlcNAc(b1-3)Gal(b1-4)GlcNAc(b1-2)Man(a1-6)]Man(b1-4)GlcNAc(b1-4)[Fuc(a1-6)]GlcNAc
# In short: as §1
# [20] = target: GlcNAc(b1-3)Gal(b1-4)GlcNAc(b1-3)Gal(b1-4)GlcNAc(b1-3)Gal(b1-4)GlcNAc(b1-3)Gal(b1-4)GlcNAc(b1-2)[GlcNAc(b1-3)Gal(b1-4)GlcNAc(b1-3)Gal(b1-4)GlcNAc(b1-3)Gal(b1-4)GlcNAc(b1-3)Gal(b1-4)GlcNAc(b1-6)]Man(a1-6)[GlcNAc(b1-3)Gal(b1-4)GlcNAc(b1-3)Gal(b1-4)GlcNAc(b1-3)Gal(b1-4)GlcNAc(b1-3)Gal(b1-4)GlcNAc(b1-2)Man(a1-3)]Man(b1-4)GlcNAc(b1-4)[Fuc(a1-6)]GlcNAc
# In short: as §1
# [21] = target: GlcNAc(b1-3)Gal(b1-4)GlcNAc(b1-3)Gal(b1-4)GlcNAc(b1-3)GalNAc
# In short: as §1
# [22] = target: GlcNAc(b1-3)Gal(b1-4)GlcNAc(b1-3)GalNAc
# In short: as §1
# [23] = target: GlcNAc(b1-3)Gal(b1-4)GlcNAc(b1-3)[GlcNAc(b1-3)Gal(b1-4)GlcNAc(b1-3)]GalNAc
# In short: as §1
# [24] = target: GlcNAc(b1-3)Gal(b1-4)GlcNAc(b1-6)[Gal(b1-3)]GalNAc
# In short: as §1
# [25] = target: GlcNAc(b1-3)Gal(b1-4)GlcNAc(b1-6)[GlcNAc(b1-3)Gal(b1-3)]GalNAc
# In short: as §1
# [26] = target: GlcNAc(b1-3)Gal(b1-4)GlcNAc(b1-6)[GlcNAc(b1-3)]Gal(b1-4)GlcNAc
# In short: as §1
# GlcNAc(b1-3)GalNAc = target: GlcNAc(b1-3)GalNAc
# In short: as §1
# GlcNAc(b1-3)Man = target: GlcNAc(b1-3)Man
# In short: as §1
# [27] = target: GlcNAc(b1-3)[GlcNAc(b1-4)][GlcNAc(b1-6)]GlcNAc
# In short: as §1
# [28] = target: GlcNAc(b1-3)[GlcNAc(b1-6)]Gal(b1-4)GlcNAc
# In short: as §1
# [29] = target: GlcNAc(b1-3)[GlcNAc(b1-6)]GalNAc
# In short: as §1
# [30] = target: GlcNAc(b1-4)Gal(b1-4)GlcNAc
# In short: as §1
# GlcNAc(b1-4)GlcNAc = target: GlcNAc(b1-4)GlcNAc
# In short: as §1
# [31] = target: GlcNAc(b1-4)GlcNAc(b1-4)GlcNAc
# In short: as §1
# [32] = target: GlcNAc(b1-4)GlcNAc(b1-4)GlcNAc(b1-4)GlcNAc(b1-4)GlcNAc
# In short: as §1
binder,measurement,setting,value
PX9961V-pdi-562-26-562 (Parabacteroides distasonis) (protein) EIFSEITTDNYYQNSNNIYAALVNNYAKAFSTGWSDARYFLQEVTADQLMIPTRGKHGYNGGEYVRLHEHKWTVEENFVYNGWAAPFQGIALCNNTLSDFENLDFSTFKLTEETKNEYIAELRALRVWNYMFLIDFFRHVPIVTDIEEVKAQSTPLEVFNFMESELLAILPDLPKNRGVSRFDQAGVASILVRLYLNAEKWIGISKYDECEQMAQAILDGKYGEYSIDPDYRGPFRSGINGYRSKENIMEFAIKKNYFEASWLYNMWMHYQDRYSLDNDWQGWNGGNLAPSRDLYGNLYQDKLGMPFEKFPDGDIRKKAFRVISNDGDYEGFFLMGTQYKFDYEKGYGFTDEVITGTEEYNGKPLVYVDQVGRFSEGETGLAKGSHVIYGEENTGYRLIKFPWLPQSKDLFQMNSIPEIRLAEIYYSLAECKYRSGDKIGAARLLDVVRKRYYKAEDWSKFSYESNISKLTDDEFVDELGREFIGERHRRIDLIRWNRFSEGAWWDKTPDATNQDVFPIPYRALNANPLLKQTTAGF,glycan array binding signal (z-score),[1],-0.752
same,glycan array binding signal (z-score),[2],-0.782
same,glycan array binding signal (z-score),[3],-0.51
same,glycan array binding signal (z-score),[4],-0.457
same,glycan array binding signal (z-score),[5],-0.766
same,glycan array binding signal (z-score),GlcNAc(b1-3)Fuc,-0.505
same,glycan array binding signal (z-score),GlcNAc(b1-3)Gal,-0.353
same,glycan array binding signal (z-score),[6],-0.362
same,glycan array binding signal (z-score),GlcNAc(b1-3)Gal(b1-4)Glc,-0.351
same,glycan array binding signal (z-score),[7],-0.416
same,glycan array binding signal (z-score),[8],-0.375
same,glycan array binding signal (z-score),[9],2.15
same,glycan array binding signal (z-score),[10],0.976
same,glycan array binding signal (z-score),[11],-0.694
same,glycan array binding signal (z-score),[12],0.749
same,glycan array binding signal (z-score),[13],-0.392
same,glycan array binding signal (z-score),[14],-0.087
same,glycan array binding signal (z-score),[15],1.27
same,glycan array binding signal (z-score),[16],0.018
same,glycan array binding signal (z-score),[17],-0.05
same,glycan array binding signal (z-score),[18],0.359
same,glycan array binding signal (z-score),[19],0.5
same,glycan array binding signal (z-score),[20],-0.125
same,glycan array binding signal (z-score),[21],-0.195
same,glycan array binding signal (z-score),[22],-0.335
same,glycan array binding signal (z-score),[23],-0.471
same,glycan array binding signal (z-score),[24],-0.414
same,glycan array binding signal (z-score),[25],-0.019
same,glycan array binding signal (z-score),[26],-0.504
same,glycan array binding signal (z-score),GlcNAc(b1-3)GalNAc,-0.21
same,glycan array binding signal (z-score),GlcNAc(b1-3)Man,-0.452
same,glycan array binding signal (z-score),[27],-0.199
same,glycan array binding signal (z-score),[28],-0.776
same,glycan array binding signal (z-score),[29],-0.317
same,glycan array binding signal (z-score),[30],-0.145
same,glycan array binding signal (z-score),GlcNAc(b1-4)GlcNAc,-0.216
same,glycan array binding signal (z-score),[31],0.165
same,glycan array binding signal (z-score),[32],0.049
